Reference: publication doi:10.1101/2022.05.24.493195 (bioRxiv, 2022)

Biological target: T161 phosphorylated CDK1 (full-length human CDK1) (human, UniProt P06493, phosphothreonine at T161)
Test: SEC

binding result: binds
B1: Bovine cyclin A2, […] (domain or fragment)
chain: not shown
